From the supplement of paper PMC10338343
± gives the standard deviation. This is a selection; strong and weak results do not stand in their true shares.

system: MIWI (PIWIL1) piRISC loaded with L1MC piRNA (30 nt); experiment: pre-steady-state target cleavage rate (min^-1); MIWI and MILI are mouse PIWI proteins and EfPiwi is from a freshwater sponge; tags in brackets are library labels; higher = faster piRNA-guided slicing of the target; conditions: guide: L1MC piRNA 5'p-UAACUAAAUACUAUGCAAGCUGUAGGUCCU; auxiliary factor: none (no GTSF1)
In short: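 For Cleave-'n-Seq, a transcribed, DNA-blocked target RNA library […] met 1 nM active affinity-purified piRISC with one synthetic guide at 33 °C for 0–8 or 0–960 min in HEPES–potassium acetate buffer, with or without 500 nM GTSF1 partner protein. Uncleaved targets were sequenced and normalised to depth and weakly complementary targets, with three trials pooled and k3 capped at 0.0001 min^-1. A burst-and-steady-state fit supplied the pre-steady-state cleavage rate.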
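Further: 1 nM active piRISC with 0.1 nM target library at 33 °C single turnover.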

Row | Sequence | pre-steady-state target cleavage rate
1 | UCCUGGUACAGCUUGCAUAGUUUUUUGUUA | 0.0195 ± 0.0058
2 | UCCACCUACAGCUUGCAUAGUUUUUAGUAA | 0.00954 ± 0.0022
3 | UCCUCCUACAGCUUGAAUAGUAUUUAGUUA | 0.0248 ± 0.0051
4 | UCCUCCUACACCUUGCAUAGUAAUUAGUUA | 0.0139 ± 0.0021
5 | UCCUGGAUGUGCUUGCAUAGUAUUAAGUAA | 0.0066 ± 0.0024
6 | UCCUCCUGACAGCUUGCAUAGUAUUUAGUUA | 0.0588 ± 0.01
7 | AGGUCCUACAGCUUGCAUAGUAUUUAGAAA | 0.0132 ± 0.0048
8 | UCCUGGAUGAGCCUUGCAUAGUAUUUAGUUA | 0.0177 ± 0.0054
9 | UCCUGGAUGUGCUUGCAUAGUUAUUAGUUA | 0.00708 ± 0.0028
10 | UCCUCCUACAGCUUGCAAAGUAUUUAGUUA | 0.0317 ± 0.0066
11 | UCCACCUACAGCUUGCAUAGUAUAUAGUAA | 0.00507 ± 0.0024
12 | UCGACCUAGUGCUUGCAUAGUAUUUAGUAA | 0.0195 ± 0.0046
13 | AUGGACCUACAGCUUGCAUAGUAUUUAGUUA | 0.0872 ± 0.018
14 | UCCACCAACAGCUUGCAUACUAUUUAGUUA | 0.0316 ± 0.0059
15 | UCCACCUACAGCUUGCAUAGUCUUUAGUUA | 0.0227 ± 0.0043
16 | UCCACCUACAGCUCGCAUAGUAUUUAGUUA | 0.0579 ± 0.012
17 | UCCUGGUACUGCUUGCAUAGUAAUUAGUUA | 0.0127 ± 0.0034
18 | UCCUCCUACAGCUUGCAUAGUAUUAAGUUA | 0.017 ± 0.0042
19 | UCCACGUACAGCUUGCAUAGUAUUUACUUA | 0.0289 ± 0.0035
20 | AGCACCUACAGCUUGCAUAGUAUUUUGUUA | 0.624 ± 0.22

Row | Sequence | pre-steady-state target cleavage rate
21 | UCCUGGAAGAGCUUGCAUAGUUUUUAGUUA | 0.0241 ± 0.0075
22 | UCCUGCUACAGCUUGCUAGUAUUUAGUUA | 0.00304 ± 0.0024
23 | UCCUCCUACAGCUUGCAUAGAAUUUAGAUA | 0.00879 ± 0.0022
24 | UCCUGGAUGAGCUUGCAUACUAUAUAGUUA | 0.0108 ± 0.003
25 | UCGACCUACAGCUAGCUUAGUAUUUAGUUA | 0.00927 ± 0.0022
26 | UCGAGCAACAGCUUGCAUAGUAUUUAGUUA | 0.076 ± 0.013
27 | UCCUGGAUCAGCUAGGAUAGUAUUUAGUUA | 0.00285 ± 0.0027
28 | UCCACCUACAGCUUGCAUAGUUAAUAGUUA | 0.00561 ± 0.0018
29 | UGGACGUACAGCUUGCAUAGUAUUUUCAAA | 0.00471 ± 0.0022
30 | UCCACCUACACCUUGCAUAGUAUUUAGUUA | 0.0526 ± 0.0089
31 | UCGACCUACAGCUUGCAAAGUAUUUAGUUA | 0.0377 ± 0.0085
32 | UCCUCCUUGAGCUUGCAUAGUAUUUACAAA | 0.00306 ± 0.0019
33 | UCGACCUACAGCUUGCAUAGUAUUUACGUUA | 0.0475 ± 0.0078
34 | AGGAACCUACAGCUUGCAUAGUAUUUAGUUA | 0.0809 ± 0.014
35 | UGGACCUACAGCUUGCAUACUAUUAAGUUA | 0.0113 ± 0.0029
36 | UCCUGGAUCAGGUUGCAAAGUAUUUAGUUA | 0.0061 ± 0.0023
37 | UGGACCUACAGCAAGCAUAGUAUUUAGUAA | 0.0053 ± 0.0019
38 | UCCUGCUACACCUUGCAUAGUAUUUUGUUA | 0.0162 ± 0.0029
39 | UCCUGGAUGAGCUUGCAUAGUAUUGAGUUA | 0.0263 ± 0.0075
40 | UCCACCUACAGGUUGCAUAGUAUUUACUUA | 0.0205 ± 0.0031
